{"source": "PubChem BioAssay AID445", "about": "(National Center for Advancing Translational Sciences (NCATS), 2006)", "experiment": "IkB Signaling;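 on IkBa stabilization activation: 0% = basal untreated cells and 100% = reference inhibitor full response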", "conditions": "ABC-DLBCL IkBa-CBG/CBR dual luciferase ratio (green luciferase fused to IkBa over red control in OCI-Ly3 lymphoma cells), 4 h; IkBa stabilization activation: at 57.1 µM (top of the series), scaled: untreated 0%, proteasome inhibitor 100% unless noted", "procedure,_shortened": "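Luminescence ratio of IκBα-fused green versus native red beetle luciferase in OCI-Ly3 cells, 4 h post-doxycycline with compound; red signal alone, scaled from basal (0%) to zero light (-100%), flagged nonspecific or cytotoxic effects.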", "note": "About 40 (0.04%) of roughly 110,000 compounds were called active. Inconclusive results, whose numbers are uncertain, are shown with a selection of clear calls. The call rests on the fitted dose curve; in most records, active means well fitted curve in the direction sought with a large enough effect in the signal ratio (not every such curve was filed as active); inconclusive means small, poorly fitted or top-dose-only effect, or a change in a side signal; inactive means flat fitted curve, though single readings scatter; the % refers to the signal ratio. Potencies of inconclusive entries are doubtful fits and often do not repeat. Potency means the concentration at half of the fitted maximal effect."}
{"smiles": "CCn1nc(-c2ccccc2)c(-c2ccccc2)c(C(=O)Nc2ccccc2C#N)c1=O", "values": [{"measurement": "IkBa stabilization activation", "result": "inconclusive: -0.74% [signal inhibitor]"}]}
{"smiles": "CCOC(=O)CSC1=C(C#N)C(c2ccco2)C(C(=O)OCc2ccccc2)=C(C)N1", "note": "(stereo not drawn)", "values": [{"measurement": "Potency", "result": "inconclusive: 31.6 µM [signal inhibitor, single point]"}]}
{"smiles": "O=C1Oc2ccccc2C(=O)/C1=C\\N1C(=O)N/C(=C\\c2ccccc2O)C1=O", "values": [{"measurement": "Potency", "result": "inconclusive: 2 µM [signal inhibitor, partial curve]"}]}
{"smiles": "CCOc1ccc2nc(NC(=O)C(CCSC)NS(=O)(=O)c3cccs3)sc2c1", "note": "(stereo not drawn)", "values": [{"measurement": "IkBa stabilization activation", "result": "inactive"}]}
{"smiles": "COc1cccc(Cn2c(=O)n(CCc3ccccc3)c(=O)c3c2c2cc(OC)ccc2n3C)c1", "values": [{"measurement": "IkBa stabilization activation", "result": "inactive"}]}
{"smiles": "Cc1noc(C)c1-c1nccc(N2CCNCC2)n1", "values": [{"measurement": "IkBa stabilization activation", "result": "inactive: 1.61% [at 11.4 µM, scaled: untreated 0%, proteasome inhibitor 100%]"}]}
{"smiles": "COc1ccc(NC(=O)c2c(NC(=O)c3ccncc3)sc3c2CCC(C(C)(C)C)C3)cc1", "note": "(stereo not drawn)", "values": [{"measurement": "IkBa stabilization activation", "result": "inconclusive: 5.53% [signal inhibitor]"}]}
{"smiles": "COc1ccc(C(=O)NNc2ncnc3c2cnn3-c2ccc(C)c(Cl)c2)cc1", "values": [{"measurement": "IkBa stabilization activation", "result": "inactive"}]}
{"smiles": "N[C@@H](C(=O)O)[C@@H]1C[C@H]1C(=O)O", "values": [{"measurement": "IkBa stabilization activation", "result": "inactive"}]}
{"smiles": "COc1ncc2nc(-c3ccc(F)cc3)c(=O)n(C)c2n1", "values": [{"measurement": "IkBa stabilization activation", "result": "inactive: -1.24% [at 11.4 µM, scaled: untreated 0%, proteasome inhibitor 100%]"}]}
{"smiles": "Cc1cccc(NC(=O)CSc2nc3ccccc3nc2N2CCCCC2)c1C", "values": [{"measurement": "IkBa stabilization activation", "result": "inconclusive: 0.636% [signal inhibitor]"}]}
{"smiles": "COc1cc(NC(=O)C(Cc2ccccc2)NS(=O)(=O)c2cccc3nsnc23)cc(OC)c1", "note": "(stereo not drawn)", "values": [{"measurement": "IkBa stabilization activation", "result": "inconclusive: -1.7% [signal inhibitor]"}]}
{"smiles": "CC(=O)SC[C@@H](Cc1ccccc1)C(=O)NCC(=O)OCc1ccccc1", "values": [{"measurement": "IkBa stabilization activation", "result": "inactive"}]}
{"smiles": "COc1ccc(Br)cc1CNC(=O)c1ccc2c(c1)nc1n2CCC(C)C1", "note": "(stereo not drawn)", "values": [{"measurement": "IkBa stabilization activation", "result": "inactive"}]}
{"smiles": "CC(=O)c1cccc(NC(=O)CCc2c(C)nc3c(c(C)nn3-c3ccccc3)c2C)c1", "values": [{"measurement": "IkBa stabilization activation", "result": "inconclusive: 3.41% [signal inhibitor]"}]}
{"smiles": "CCCCNc1nc(Oc2ccc(=O)n(C)n2)nc(N2CCOCC2)n1", "values": [{"measurement": "IkBa stabilization activation", "result": "inconclusive: 8.52% [signal inhibitor]"}]}
{"smiles": "CCC(CC)C(=O)Nc1ccc2nc(SCC(=O)N3CCc4ccccc43)sc2c1", "values": [{"measurement": "IkBa stabilization activation", "result": "inconclusive: -0.519% [signal inhibitor]"}]}
{"smiles": "O=S(=O)(c1cccc2cnccc12)N1CCNCC1", "values": [{"measurement": "IkBa stabilization activation", "result": "inconclusive: 0.178% [signal inhibitor]"}]}
{"smiles": "Cc1ccc(CNC(=O)CN(c2cccc(C)c2C)S(=O)(=O)c2ccccc2)cc1", "values": [{"measurement": "IkBa stabilization activation", "result": "inconclusive: 10.4% [signal inhibitor]"}]}
{"smiles": "CCCCNc1ccc(-c2nc(-c3ccco3)no2)cc1[N+](=O)[O-]", "values": [{"measurement": "IkBa stabilization activation", "result": "inconclusive: 4.72% [signal inhibitor]"}]}
{"smiles": "CCOC(=O)c1c(-c2ccc(C)cc2)csc1NC(=O)c1cc(-c2ccc(C)c(F)c2)on1", "values": [{"measurement": "IkBa stabilization activation", "result": "inconclusive: 3.59% [signal inhibitor]"}]}
{"smiles": "CC(=O)c1cccc(NC(=O)C2CCCN(C(=O)c3cnn(-c4ccccc4)c3-n3cccc3)C2)c1", "note": "(stereo not drawn)", "values": [{"measurement": "IkBa stabilization activation", "result": "inconclusive: 3.55% [signal inhibitor]"}]}
{"smiles": "O=C(CSc1nnnn1C1CCCC1)c1ccc2c(c1)OCCO2", "values": [{"measurement": "IkBa stabilization activation", "result": "inactive"}]}
{"smiles": "COc1ccc(-c2nc(SCC(=O)Nc3ccc4c(c3)OCCO4)c(-c3ccc(F)cc3)[nH]2)cc1OC", "values": [{"measurement": "IkBa stabilization activation", "result": "inconclusive: 11.4% [signal inhibitor]"}]}
{"smiles": "O=C(c1ccc2c(c1)N(Cc1ccc(F)cc1)C(=O)c1ccccc1S2(=O)=O)N1CCN(Cc2ccccc2)CC1", "values": [{"measurement": "IkBa stabilization activation", "result": "inconclusive: 2.46% [signal inhibitor]"}]}
{"smiles": "CCOC(=O)C1CCN(C(=O)Cn2ncc3c4ccccc4n(Cc4ccc(F)cc4)c3c2=O)CC1", "values": [{"measurement": "IkBa stabilization activation", "result": "inconclusive: 4.73% [signal inhibitor]"}]}
{"smiles": "CCn1c(-c2ccc(N(C)C)cc2)nc2ccccc21", "values": [{"measurement": "IkBa stabilization activation", "result": "inactive"}]}
{"smiles": "c1ccc2c(CC3NCCN3)cccc2c1", "values": [{"measurement": "IkBa stabilization activation", "result": "inactive: -0.847% [at 11.4 µM, scaled: untreated 0%, proteasome inhibitor 100%]"}]}
{"smiles": "COc1ccc(-c2nnc3ccc(SC(C(C)=O)C(C)=O)nn23)cc1OC", "values": [{"measurement": "IkBa stabilization activation", "result": "inactive"}]}
{"smiles": "CCN(Cc1ccccc1)C(=O)Cn1c(=O)n(-c2cccc(C)c2)c(=O)c2c1c1cc(C)ccc1n2C", "values": [{"measurement": "IkBa stabilization activation", "result": "inactive"}]}
{"smiles": "Cc1csc(NC(=O)c2cc3c(s2)CCC3)n1", "values": [{"measurement": "IkBa stabilization activation", "result": "inactive"}]}
{"smiles": "O=S(=O)(c1ccc2c(c1)OCCO2)N1CCN(c2cccc(Cl)c2)CC1", "values": [{"measurement": "IkBa stabilization activation", "result": "inactive"}]}
{"smiles": "Cc1nn(-c2ccccc2)c2nc(-c3ccncc3)cc(C(=O)NCc3ccco3)c12", "values": [{"measurement": "IkBa stabilization activation", "result": "inconclusive: 2.96% [signal inhibitor]"}]}
